Assay results as given in the supplement of paper PMC12217912.
The list shows a part of the results. Sequences were assembled here from the parent chain. Values near 0.05 are background.

B1: TEV protease; numbered along this chain (parent)
chain: MGESLFKGPRDYNPISSSICHLTNESDGHTTSLYGIGFGPFIITNKHLFRRNNGTLVVQSLHGVFKVKDTTTLQQHLVDGRDMIIIRMPKDFPPFPQKLKFREPQREERICLVTTNFQTKSMSSMVSDTSCTFPSGDGIFWKHWIQTKDGQCGSPLVSTRDGFIVGIHSASNFTNTNNYFTSVPKNFMELLTNQEAQQWVSGWRLNADSVLWGGHKVFMVKPEEPFQPVKEATQL

Variants of: B1
Assay: raw area under fraction-flipped curve 0-4 h after induction (AUC4h, not background-subtracted), DNA-recorder readout of cleavage of the substrate (dimensionless); higher = more cleavage of the substrate by the protease variant
Conditions: temperature: 34 °C; time window: 0-4 h after rhamnose induction
Protocol: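 In vivo DNA recorder in E. coli TOP10(DE3) ΔrhaA at 34 °C. Each TEVp single-site mutant (parent TEVp 0) is paired with a single-site variant of the 7-mer TEVs (canonical ENLYFQ|S). The substrate sits between flexible linkers in a Bxb1-sfGFP-TEVs-SsrA fusion, so cleavage stabilises Bxb1 and speeds flipping of a recombination array, read by NGS. The value is the raw area under the fraction-flipped curve over 0-4 h after rhamnose induction (AUC4h), with ≥20 reads per time point. It is not background-subtracted; inactive controls average about 0.047.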
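Also: Bxb1 expression induced with 0.2% (w/v) L-rhamnose at OD600 near 0.5, cultures sampled hourly, flipped fraction per protease–substrate barcode pair counted by paired-end Illumina sequencing.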

Variant | area with substrate DNLYFQS | area with substrate FNLYFQS | area with substrate GNLYFQS | area with substrate HNLYFQS | area with substrate INLYFQS | area with substrate LNLYFQS | area with substrate PNLYFQS | area with substrate SNLYFQS | area with substrate WNLYFQS | area with substrate YNLYFQS | area with substrate KNLYFQS | area with substrate MNLYFQS | area with substrate NNLYFQS | area with substrate TNLYFQS | area with substrate VNLYFQS | area with substrate RNLYFQS | area with substrate QNLYFQS
G63E | 0.0636 | 0.0689 | 0.0549 | 0.0544 | 0.0598 | 0.0507 | 0.0614 | 0.0613 | 0.0921 | 0.055 | – | – | – | – | – | – | –
F49L | 0.0492 | – | – | 0.0442 | – | 0.0531 | – | – | 0.006 | – | 0.0587 | 0.0439 | 0.041 | – | – | – | –
F49N | 0.0556 | – | 0.0663 | – | 0.0349 | 0.0607 | 0.0581 | 0.0482 | 0.0524 | 0.0614 | – | – | 0.0627 | 0.0531 | 0.0338 | – | –
F6E | 0.0681 | – | – | 0.0527 | – | 0.0695 | – | – | – | – | 0.0689 | – | 0.0618 | – | – | 0.0729 | –
F6C | 0.0792 | – | – | – | – | – | 0.068 | 0.0508 | 0.049 | – | – | 0.0613 | 0.0559 | 0.0551 | – | – | –
L33A | 0.0576 | – | – | – | – | – | – | 0.0888 | – | – | 0.0951 | 0.0686 | – | 0.0682 | – | – | –
I15R | 0.0606 | – | – | 0.0433 | – | 0.0519 | – | – | – | – | – | – | – | 0.0615 | – | – | –
D69A | 0.0629 | – | – | – | – | – | – | – | 0.0553 | – | – | – | – | 0.0566 | – | – | –
D27F | 0.0668 | 0.0564 | – | – | 0.0616 | – | 0.045 | 0.0396 | 0.0545 | – | 0.0491 | 0.0813 | 0.089 | 0.0497 | – | – | –
D27I | 0.0689 | 0.0786 | 0.0444 | 0.0495 | – | 0.0598 | 0.0555 | 0.0655 | 0.0525 | 0.0638 | 0.0534 | 0.0526 | – | 0.0574 | 0.0626 | – | 0.0682
H47T | 0.0602 | – | 0.0501 | 0.0641 | – | – | – | 0.0584 | 0.0591 | 0.0549 | – | 0.0581 | – | 0.0624 | – | – | –
G37D | 0.0221 | – | – | 0.0506 | – | – | 0.0305 | – | 0.0401 | 0.0469 | 0.0483 | 0.0428 | – | – | 0.0507 | – | –
Y12T | 0.0637 | 0.0634 | 0.0951 | – | – | – | 0.0703 | – | 0.0595 | 0.0704 | – | 0.0655 | 0.0679 | 0.0648 | 0.0754 | 0.0178 | –
L5I | 0.127 | – | – | 0.0658 | – | – | 0.0717 | – | 0.0719 | – | – | 0.0723 | – | 0.0736 | – | – | –
K7T | 0.086 | – | – | 0.0524 | – | – | – | 0.0469 | 0.0879 | – | – | – | 0.0748 | – | – | 0.0752 | –
K7F | 0.106 | – | – | – | – | – | – | – | – | – | – | – | – | 0.0645 | – | – | –
K7R | 0.0711 | – | – | – | – | – | – | – | – | – | – | – | – | – | 0.0564 | – | –
H62E | 0.101 | – | 0.0468 | 0.0705 | 0.0609 | 0.0892 | 0.066 | 0.0489 | 0.0546 | 0.061 | – | 0.0549 | – | 0.0588 | 0.0607 | – | –
T31Y | 0.0752 | 0.0654 | – | 0.0498 | – | 0.0816 | 0.0745 | 0.065 | 0.06 | 0.063 | – | – | – | 0.0688 | 0.0499 | – | –

Variant | area with substrate DNLYFQS | area with substrate FNLYFQS | area with substrate GNLYFQS | area with substrate HNLYFQS | area with substrate INLYFQS | area with substrate LNLYFQS | area with substrate PNLYFQS | area with substrate SNLYFQS | area with substrate WNLYFQS | area with substrate YNLYFQS | area with substrate KNLYFQS | area with substrate MNLYFQS | area with substrate NNLYFQS | area with substrate TNLYFQS | area with substrate VNLYFQS | area with substrate RNLYFQS | area with substrate QNLYFQS
F41M | 0.0787 | – | 0.0616 | 0.0596 | – | 0.0569 | 0.0433 | 0.0964 | 0.0732 | 0.0628 | 0.0539 | 0.0725 | – | 0.0629 | – | – | 0.0643
K68S | 0.0872 | 0.0566 | 0.0578 | 0.0607 | 0.0677 | – | – | – | 0.0598 | 0.0506 | – | 0.0605 | 0.0774 | – | 0.0616 | – | –
R10A | 0.0766 | – | – | – | – | 0.0683 | – | 0.0649 | 0.056 | 0.0652 | – | 0.0563 | 0.0598 | 0.106 | 0.0765 | 0.0732 | –
Q59E | 0.0542 | – | – | 0.0796 | 0.0476 | – | 0.07 | 0.0535 | 0.0691 | 0.0637 | 0.0681 | – | 0.0772 | 0.0635 | 0.0578 | – | –
Q59S | 0.0689 | – | 0.0708 | – | – | 0.0748 | 0.0207 | – | 0.0642 | – | – | – | – | 0.0499 | – | – | –
I36G | 0.0217 | – | 0.0317 | – | – | – | – | – | – | – | – | – | – | 0.0336 | – | – | –
P14F | 0.0469 | – | – | 0.074 | 0.0522 | 0.0599 | 0.0678 | 0.0682 | 0.0524 | 0.0682 | 0.0461 | 0.0698 | 0.0652 | 0.0596 | – | – | 0.067
N24I | 0.0854 | – | 0.0694 | 0.0646 | 0.06 | 0.0686 | 0.0641 | 0.0716 | 0.0591 | 0.0607 | – | 0.0541 | 0.0661 | 0.062 | – | – | –
Y34P | 0.0491 | 0.0445 | – | – | – | – | 0.0528 | 0.0509 | 0.0642 | 0.063 | 0.0583 | 0.0657 | – | 0.0619 | – | – | –
Y34M | 0.0771 | 0.0454 | – | 0.0585 | – | – | – | 0.0649 | – | 0.0474 | – | 0.0663 | 0.0547 | 0.061 | – | – | –
Y34T | 0.0528 | – | 0.0532 | 0.0652 | 0.0573 | – | 0.069 | – | 0.0563 | 0.0471 | 0.065 | 0.069 | 0.0855 | – | 0.0568 | – | 0.043
I19D | 0.0438 | 0.0345 | 0.0517 | 0.0464 | 0.0347 | 0.0255 | 0.0463 | 0.0673 | 0.0503 | – | 0.048 | 0.0456 | 0.0474 | 0.0388 | 0.0444 | 0.0437 | –
E3K | 0.119 | – | – | 0.0433 | – | – | 0.0762 | – | 0.0706 | 0.0695 | – | – | 0.0752 | 0.0316 | 0.0189 | 0.0656 | –
G35H | 0.0544 | – | – | – | 0.0519 | – | 0.0464 | – | – | 0.0185 | – | – | – | – | 0.0215 | – | 0.058
G35Y | 0.0146 | 0.0241 | – | 0.049 | – | – | 0.0397 | – | 0.0429 | – | 0.047 | – | – | – | – | – | –
G35F | 0.0411 | – | – | – | – | – | 0.0321 | – | – | 0.0401 | 0.0394 | – | – | 0.035 | – | – | –
T30M | 0.0781 | 0.053 | – | 0.0603 | 0.0541 | – | 0.0668 | 0.0736 | 0.0548 | 0.0696 | 0.0641 | 0.0624 | 0.0645 | 0.0628 | 0.0669 | – | 0.079
T30H | 0.0814 | – | 0.0688 | 0.0577 | 0.0609 | 0.0553 | 0.0717 | 0.0669 | 0.0585 | 0.0578 | 0.0653 | 0.063 | 0.0664 | 0.072 | 0.0752 | 0.058 | 0.0676
T71S | 0.0678 | – | 0.0687 | – | 0.066 | – | 0.0653 | – | – | 0.0622 | – | 0.0608 | 0.0666 | 0.0671 | – | – | –
